± gives the standard deviation of the averaged measurements. The list shows a part of the results.

The assay deals with PfAP2-LT AP2 domain (GST-tagged). In words: gcPBM binding intensity (ln(normalized median fluorescence intensity)); higher = stronger DNA binding. The essentials: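 The binding buffer was 1× PBS containing 1% milk, 0.2 mg/ml BSA, 0.5% salmon testes DNA and 0.03% Triton X-100. In it, GST-tagged P. falciparum DNA-binding domains expressed in E. coli were applied for 1 h to an Agilent 4 × 180k array of primer-extended double-stranded 36-bp intergenic genomic probes plus negative controls. Binding intensity, read with Alexa488 anti-GST antibody and a 488 nm scan, is the highest Masliner-normalised natural-log median intensity across replicate spots of either probe orientation.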
In the case of “CTATTTTAATATTTTACACACCATGTAAAATATATA [CACACA_site5732]”, the “gcPBM binding intensity (ln)” value was found to be 8.67 ± 0.35.
To “TATCATCTTAATATCGTGCACATTTATAGAACGAAA [GTGCAC_site9992]” belongs 8.56 ± 0.34.
The value for “TACAATATAATTTAATGTACATGTGAATATATATAT [XGTACX_site4675]” was 8.74 ± 0.42; that for “TATTAAAAGGTGAGTACACACATATCTGAGTATATA [CACACA_site5192]” was 8.96 ± 0.5.
To “TAATATACTATAAATACACACAAGTGTACATACTTC [CACACA_site983]” belongs 9.06 ± 0.4; to “TTAAAAAGAGGTGACACACACATATAAATCTAAATC [CACACA_site3738]”, 9.34 ± 0.56.
“TTGTGCTAAACAAAAAAAAATATATATAAAAAAATA [XGTACX_negctrl_site388]”: the “gcPBM binding intensity (ln)” value is 8.37 ± 0.62.
To “ATAAAAATATATGAAACACACAGTTTCTATAAGAAA [CACACA_site4156]” belongs 8.68 ± 0.47; to “ATATGTATATAATAAGAACACACATATATTTAATTT [CACACA_site8961]”, 9.12 ± 0.35.
As for “GTTATTAAATAATTCACACACATATATAAATAAATA [CACACA_site7129]”, the “gcPBM binding intensity (ln)” value amounted to 9.03 ± 0.38.
In the case of “ATATCTCAACATATCACACATATATATATATAATAT [CACACA_site5018]”, the “gcPBM binding intensity (ln)” value stood at 9.16 ± 0.2.
The value for “AATAAATATAAATAAATAAATATATATATATATTTG [CACACA_negctrl_site1486]” was 8.56 ± 0.4; that for “ATATGTATATTTTTGATGTGCTTTTATTTGGTTATT [CACACA_negctrl_site626]” was 9.05 ± 0.5; that for “CATCCACATAGATGTACACACATATATATATATATA [CACACA_site5616]” was 9.945 ± 0.078.
To “CTTCATAAAAATTGCACACATATAATAATGTACATA [CACACA_site2212]” belongs 8.96 ± 0.36.
With “ATTTTTTTATAATCAACCCATTTCCTACATTTTTAT [CACACA_negctrl_site1237]”, the “gcPBM binding intensity (ln)” value amounted to 8.98 ± 0.67.
The value for “AAAATTAATTTATTTACACACAATATTAAAATATTT [CACACA_site7512]” was 8.59 ± 0.45; that for “TTACATATTCATAAAAGTACATAATTATAAAAGGTA [XGTACX_site906]” was 8.75 ± 0.41; that for “TTTTATACATATTTTACACACTAAAATATACAGATA [CACACA_site4333]” was 8.63 ± 0.45.
“TATAATATATAAAAATGTACACATAAATATAAGTAG [XGTACX_site665]”: the “gcPBM binding intensity (ln)” value was 8.89 ± 0.42.
The value for “GTATATATGTTTTATACACACATTAAAGGAAATATA [CACACA_site984]” was 8.94 ± 0.4; that for “CACAAACAGACAAACACACACACACGGACATACATA [CACACA_site6350]” was 10.1 ± 0.11; that for “ACTAAATAAATAAATATAATATATAAATATGTATGT [TGCATGCA_negctrl_site583]” was 8.78 ± 0.43.
To “ACATGCAAGAAGAAATGTACTTAACATCTATATAGA [XGTACX_site7338]” belongs 8.83 ± 0.48; to “AAAAAAAAAATTAAATGTACATATATAATATATATA [XGTACX_site7245]”, 8.6 ± 0.47.
In the case of “GCCATAAAGATATATACACACATAAAAAAAAGTTAT [CACACA_site6674]”, the “gcPBM binding intensity (ln)” value amounted to 9.14 ± 0.45.
The value for “ATTATTATAGATAAAACACACAATTTTGTTTTCACA [CACACA_site7792]” was 8.73 ± 0.4.
The value for “TTAACAAAGAAACACACACACACACCCAAAAAAAAA [CACACA_site516]” was 10.2 ± 0.11.
To “AAACAATTATTATATTGTACATATATTACATTATTA [XGTACX_site1089]” belongs 8.69 ± 0.45; to “TTATATTTTATTATGTGTACGTATATAATATAATAT [XGTACX_site6230]”, 8.72 ± 0.4.
On to “AATCAAAAAGGAACCATAATATTACAACTATATATA [CACACA_negctrl_site381]”, for which the “gcPBM binding intensity (ln)” value turned out to be 8.74 ± 0.45.
The value for “TAAAACTTAATGTTTTGTACATATTCTTCTTTATTT [XGTACX_site4271]” was 8.6 ± 0.57; that for “CATTTTTTGCTTTCAACACACATACAATATATATAA [CACACA_site6127]” was 8.81 ± 0.4; that for “AAGGATCACGCACAAACACACATATTTATATTTATA [CACACA_site6405]” was 9.14 ± 0.45.
The value for “CTTTATTTTTTATACACACACAATATGTATATATAT [CACACA_site3550]” was 9.17 ± 0.33.
The value for “TAAGGATATATATATTCACACACACCGGGAAATATA [CACACA_site8020]” was 9.55 ± 0.34; that for “AAACAAATATATATATGTACTTATAAAAAAAAAAAT [XGTACX_site2211]” was 8.75 ± 0.51; that for “TTTTTATTTTTTGAAACACACACAAAAAAAATGATA [CACACA_site8564]” was 8.68 ± 0.35.
Consider “TTTTTGTATTCTTCTTCTTCCAGACTACATTATGTC [XGTACX_negctrl_site235]”, for which the “gcPBM binding intensity (ln)” value stood at 8.89 ± 0.42.
As to “ATATATTTAAAATTGACACACATTTAATGACATTTT [CACACA_site3112]”, the “gcPBM binding intensity (ln)” value is 8.76 ± 0.43.
To “TATATATGGAAAAGAGTCAAAAAGAAAAAAGAAAAA [CACACA_negctrl_site1374]” belongs 8.61 ± 0.54; to “TATGAAATATTTATACACAGAACTTCATAATTTTCA [TGCATGCA_negctrl_site509]”, 8.49 ± 0.37.
To “TCTTTAACAAGTTAAACACACATACCTATATACATA [CACACA_site7237]” belongs 8.79 ± 0.38; to “TGGTGATATACGAAATGTACGCAAATCACAAAATAA [XGTACX_site8836]”, 8.84 ± 0.41.
In the case of “CGCGTATAACGAAATTGTACAAAAAAAATTAAACAT [XGTACX_site6813]”, the “gcPBM binding intensity (ln)” value is 9.01 ± 0.45.
For “AAATAAAAATTAAAAAAATAGAAACGAATTGAATGC [TGCATGCA_negctrl_site365]”, the “gcPBM binding intensity (ln)” value came to 8.79 ± 0.49.
Regarding “AATTAAACTTTGTTTTTGTTTTTTTTTTTTATATTT [CACACA_negctrl_site1316]”, the “gcPBM binding intensity (ln)” value was 8.45 ± 0.64.
The value for “ATATATATAAATATATGTACATAAATATATTTGTAA [XGTACX_site6715]” was 8.88 ± 0.44; that for “TAATATATATAACATATACACACGTTCATATATATA [CACACA_site462]” was 8.93 ± 0.32.
To “TATTTGCAATATTATACACACATTAGATATTGCAAA [CACACA_site7565]” belongs 8.85 ± 0.29; to “TACAAAATGTTATATCAATATAGATAAAAAAATGAA [XGTACX_negctrl_site285]”, 8.69 ± 0.54; to “AAAAAAAAAAAAAAATGTACATATATAATATTTATA [XGTACX_site5117]”, 8.54 ± 0.57.
As for “AACAAATTAATTCTAGTGCAGGACGTATTTGTGTAC [GTGCAC_site9907]”, the “gcPBM binding intensity (ln)” value is 8.88 ± 0.36.
The value for “TCAACGATCACTCGGTGTACTATAAATGAGAGAATT [XGTACX_site1820]” was 8.7 ± 0.44; that for “AATTTTGAGATGTGGTGTACACAAAATTAGTTAGAC [XGTACX_site7033]” was 9.09 ± 0.45; that for “AACAATTTTTAAAGGTGTACAATATGTATATAAGAA [XGTACX_site254]” was 8.83 ± 0.51.
For “ATTAAATTAAAATAATGTACTTAATACTTTTGCTTA [XGTACX_site8404]”, the “gcPBM binding intensity (ln)” value was found to be 8.46 ± 0.46.
With “ATATATATATATAAAGGTACACATTTATTAAATATA [XGTACX_site7102]”, the “gcPBM binding intensity (ln)” value stood at 8.72 ± 0.38.
Regarding “TAATTTTTTTTTCTTGTACACACTATTTTATAATTT [CACACA_site4078]”, the “gcPBM binding intensity (ln)” value was determined as 8.9 ± 0.45.
To “ATCTATGATATATACACACACATGTATAAATAAATA [CACACA_site7012]” belongs 9.32 ± 0.37; to “AATAGTATTCACAAAGTTTTATATAATAAATATAAA [GTGCAC_negctrl_site154]”, 8.45 ± 0.52.
The value for “ATAAACAATTAACAAACATGCAAATTTTAAATGTGT [TGCATGCA_site919]” was 8.95 ± 0.39; that for “ATTTATTTGTTTGTTTTTTTTACGATTTTTATTTTT [CACACA_negctrl_site1138]” was 8.96 ± 0.47.
Consider “CGTATTTATATAATTACACACCATATTTTAATTATT [CACACA_site5960]”, for which the “gcPBM binding intensity (ln)” value was determined as 8.77 ± 0.38.
To “TTTTTTTTTTTTTTTTGTACATATTTTTAAACTATA [XGTACX_site2897]” belongs 8.42 ± 0.54; to “TTTTTTTTTTGATGTTGTACATATATATTATATATA [XGTACX_site6377]”, 8.71 ± 0.36; to “AGATATATGGACGACTCACACATTTAAATTCATTCA [CACACA_site6047]”, 8.87 ± 0.45.
The value for “CTTTCATATGTTTTAACACACACGCATATATTATAT [CACACA_site8615]” was 9.36 ± 0.33; that for “TTTTTTTTTTTGATTTGTACACAAAAAAAATATATG [XGTACX_site4547]” was 8.37 ± 0.52; that for “ATATTTATATATATGTGTACATATAGAAACATAAAA [XGTACX_site4355]” was 8.79 ± 0.42.
The value for “CTTCTTATTTTCTAATGTACGTACAAATCATTTATA [XGTACX_site2176]” was 8.74 ± 0.45; that for “TGTCCTTATGGGCACACACACATATAAGAAATTTAA [CACACA_site3187]” was 9.13 ± 0.49.
Consider AAAAACAAACTGTGCATGCACCAAAAAAAAAAAAAA, for which the “gcPBM binding intensity (ln)” value stood at 8.98 ± 0.4.
“TAAACATACATATACACACACACACCCACACCCACA [CACACA_site492]”: the “gcPBM binding intensity (ln)” value is 10.3 ± 0.18.
Consider “TTTTTTTTTTTAATTTGTACGAATCTTTTTATTTTA [XGTACX_site4516]”, for which the “gcPBM binding intensity (ln)” value was 8.7 ± 0.59.
Consider “AGAAATGAAATATACACACATACATATATACATATA [CACACA_site4033]”, for which the “gcPBM binding intensity (ln)” value came to 9.2 ± 0.34.
The value for “ACCCTCATATTATAGACACACACAAAAAAAATAAAA [CACACA_site7941]” was 9.24 ± 0.54.
In the case of “TAAATACACCCTAGACGTACATAAAAATTTAGTATG [XGTACX_site2512]”, the “gcPBM binding intensity (ln)” value came to 8.9 ± 0.42.
The value for “ATTAATAATGAGTTATGTACATACATATTTTAAGAT [XGTACX_site7543]” was 8.81 ± 0.42; that for “AAATGTATAATATTTTCACACACAAGAAAAAAGAAA [CACACA_site9195]” was 9.08 ± 0.41.
To GCCAATAAAGATGTGGTGCATTATATATATATATAT belongs 9.38 ± 0.12; to “TATCGAGCACGGCGTGTGGAGTTACAAAGAGGAGAA [CACACA_negctrl_site40]”, 9.04 ± 0.63; to “ATTTTTTTATAAAATTTTTATATATTATATAAATAT [GTGCAC_negctrl_site163]”, 8.31 ± 0.5.
With “TAAAAATAGTATACAACACACGAGGGAAAATAAAGT [CACACA_site3837]”, the “gcPBM binding intensity (ln)” value is 9.42 ± 0.37.
For the sequence “ATAATATAAATATGCACACAAATTATTACCCAAAAA [CACACA_site2524]”, the “gcPBM binding intensity (ln)” value is 9.03 ± 0.41.
As for “GTTATATTCCTACAGAGTACATAAAAATGCACATCA [XGTACX_site1948]”, the “gcPBM binding intensity (ln)” value is 8.62 ± 0.4.
The value for “AAATATAATATATGCACACATACATACAGATATATA [CACACA_site4235]” was 9.1 ± 0.38.
“ATAAATATAGGACACACACACATATTATATATATAT [CACACA_site5658]”: the “gcPBM binding intensity (ln)” value was found to be 9.88 ± 0.3.

The values are drawn from the supplement of paper PMC11417369.
